This is one part of the list.
Test system: S. aureus RN4220
Assay: growth inhibition call (relative growth <= 0.2)
Conditions: 50 µM

Growth inhibition call, inactive:
COc1ccc(-c2cc(=O)c3c(O)cc(OC)cc3o2)cc1
C[C@H](O)C#Cc1cnc2c(c1)C(=O)N([C@H](C)CO)C[C@@H](C)[C@H](CN(C)Cc1cncnc1)O2
C[C@@H]1CN([C@@H](C)CO)C(=O)c2cc(NC(=O)Nc3cccc4ccccc34)ccc2O[C@H]1CN(C)C(=O)Nc1ccc(F)cc1
C[C@H]1CN([C@@H](C)CO)C(=O)c2cc(NC(=O)Nc3cccc4ccccc34)ccc2O[C@H]1CN(C)S(=O)(=O)c1cccs1
CNC[C@@H]1OCCCC[C@@H](C)Oc2ccc(NS(=O)(=O)c3cn(C)cn3)cc2C(=O)N([C@H](C)CO)C[C@@H]1C
C[C@@H]1CN([C@@H](C)CO)C(=O)Cc2cc(NS(=O)(=O)c3ccc(F)cc3)ccc2O[C@H]1CN(C)CC1CC1
COc1cccc(NC(=O)N[C@@H]2C=C[C@@H](CC(=O)N3CCOCC3)O[C@@H]2CO)c1
C[C@@H]1CCCCO[C@H](CN(C)S(=O)(=O)c2cccs2)[C@@H](C)CN([C@@H](C)CO)C(=O)c2cc(NS(=O)(=O)c3cn(C)cn3)ccc2O1
C[C@H]1CN([C@@H](C)CO)C(=O)c2cc(NC(=O)Cn3cnnn3)ccc2O[C@@H]1CN(C)S(=O)(=O)c1ccc(Cl)cc1

Reference: the antibiotic and cytotoxicity screens of Wong et al. (2023)
